# Laboratory results published in the supplement of paper PMC11417369.
# The other results are listed elsewhere or left out.
# System: PfHDP1 homeodomain (GST-tagged)
# Experiment: gcPBM binding intensity (ln(normalized median fluorescence intensity)); higher = stronger DNA binding
# Method in brief: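 Plasmodium falciparum DNA-binding domains carrying a GST tag were expressed in E. coli and applied for 1 h, at about 25 μg on average, to an Agilent 4 × 180k array. The array held primer-extended double-stranded 36-bp intergenic genomic probes together with negative controls, and binding took place in 1× PBS with 1% milk, 0.2 mg/ml BSA, 0.5% salmon testes DNA and 0.03% Triton X-100. An Alexa488 anti-GST antibody detected bound protein, and the array was scanned at 488 nm. Binding intensity is taken as the highest Masliner-normalised natural-log median intensity across replicate spots of either probe orientation.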
row,Sequence,gcPBM binding intensity (ln)
1,GAATATTTATGATGAACTATTAATTAATTTTACATA [GTGCAC_negctrl_site353],6.08
2,AAATAAATTGAAGATACATGCATATTTTTTTTTTAT [TGCATGCA_site686],6.25
3,TTTATATTTTTTTTTGCACACTTTAAAAAAATATAT [CACACA_site1146],9.29
4,TATATATTACATAAAACACACAAAAAAAAAATTAAA [CACACA_site3882],6.74
5,ATGTAGAGTAATAGTTGTACAAGGTGTATATCTCAT [XGTACX_site6370],7.33
6,AAAAAAAAAAACTTTGCATGTAATAATAAAAAAAAA [TGCATGCA_site81],6.43
7,AGAAGAAAACAAAACACACACATATATCTTAATATA [CACACA_site2231],6.73
8,TGGTGAAAAATATAAATATAAATAAATATATATATA [CACACA_negctrl_site1725],8.51
9,ATGTTAATTAATGAGGTGCATTGAATATTTCAATAA,8.32
10,TGTATTATCTCTTATGAACACACATTTTTATTTTCA [CACACA_site9107],6.65
11,ATACCTAAAAAATATACACACATATATATAAATATA [CACACA_site2580],6.49
12,CATCAATGCTAATTATGTACTTACATAAATAACCCT [XGTACX_site968],6.52
13,AATTAAATGTTTCTAAGATATACGACCAATGTATTT [CACACA_negctrl_site1694],6.04
14,AATTAATGGGTACATACACACATATATACATACATA [CACACA_site742],6.43
15,ATAAATAAATAAAAGCGTACATATATATAAAATATA [XGTACX_site8107],6.31
16,TATCACCCACCATGAAGTACATATTACCATTTGATG [XGTACX_site845],6.58
17,AAAAGGAAGATATATACACACATACAAATATTTATA [CACACA_site7093],6.71
18,TTATACTAAATGAACACACACACATATATATATATA [CACACA_site99],9.27
19,ATATTAATGATATATACACACATAAGTATTGTATAT [CACACA_site7844],6.4
20,AAATGTAATTTGTCTTTTATTTATATTTGACATGAT [TGCATGCA_negctrl_site520],6.08
21,TTTTTTTTTTTTTTTTTTTTTTTGCTCAGTGTGGTA [CACACA_negctrl_site29],6.88
22,AAAAATTATAAAAAACAAATATTAAATAATTATTAA [GTGCAC_negctrl_site125],6.15

row,Sequence,gcPBM binding intensity (ln)
1,TTGATGGGAAAAAACTTTTTTTTCTTTTTTTCTTTC [CACACA_negctrl_site328],5.65
2,AGAGTTAAACGATATATATAAATATATATATATATA [GTGCAC_negctrl_site316],9.03
3,AAAAAAAAAAACGACAGTACAATTATAATTTATATT [XGTACX_site2365],6.33
4,ATGTCTTAAAAATTAAAACACACGTTCACTTTCATA [CACACA_site3385],6.46
5,AGATCATAATATTATACACACATTAGATATAGGTAA [CACACA_site6809],6.76
6,ACTCTTTTAACGCAAAGTACTTTTTAAAATATTTCG [XGTACX_site7534],7.23
7,AACATACGAATATTCACACATAAATATATAAATCGC [CACACA_site4672],6.47
8,ATTTCTATTTGGGTTAGTACATATAAGTCTATTTTC [XGTACX_site3234],6.6
9,TATATAATCGAGTGCACACACAAAAAAAAAGTGAAC [CACACA_site1483],10.4
10,TTTTTTTTTTCTTTTTGTACATATTCATAACAAGTA [XGTACX_site2784],6.34
11,TATTATATATATATCACACATATATTCATGTACATA [CACACA_site5432],6.72
12,AATACGTTATTATTTTGTACATATAAATAATAAGTT [XGTACX_site815],6.29
13,AAAAAAGACCATGTTAGTACATAAGATTTTTTTCAT [XGTACX_site4298],5.89
14,ATATATAATATTTATTGTACTATTTTATTTTTATAA [XGTACX_site705],6.36
15,TTTGACATACCTCTTGCATGTGAAAAACTTTTCGCT [TGCATGCA_site364],6.31
16,TTCTAGAAAACTGATCGTACAAATAAATATAGACAC [XGTACX_site2808],6.72
17,ATATATTATAATGATACACACAAGAAATAAAATTAC [CACACA_site3095],6.82
18,TATAAAATAAAAGTAAATATATATATATATATATAT [TGCATGCA_negctrl_site208],9.3
19,AAAATAGGGATCACGTGTACATATAAAGTGACATAC [XGTACX_site8190],7.04
20,AATGCATACACATATTGTACTAAGCCATACAACACA [XGTACX_site305],6.75
21,TATATATATAAATACACACACACCGTCCGTGTTAAA [CACACA_site5623],7.45
22,ATATATATTATATAGTGTACCTATGTATAATAATAT [XGTACX_site1683],6.53

row,Sequence,gcPBM binding intensity (ln)
1,ATATATATATATATATGTACACATATTATAAAAAAA [XGTACX_site8644],9.18
2,TATGTAGGTAAAAATTGTACTTTTTTTTTAATATTT [XGTACX_site2303],6.08
3,TGAATAAATATAAAAGGTACACATATAAATATATAT [XGTACX_site6349],6.38
4,TGACATAATGTGTGTAGTACATATATCGTTATTTGA [XGTACX_site5152],6.33
5,TAACTCTATTTTTTTGCATGCTGAAGCTATGAGTTT [TGCATGCA_site821],6.77
6,CACAAAAATAGACACACACACATATAAATAAATATA [CACACA_site6598],6.68
7,ATAATATTATGTGTGAATATATCTTTAAAAAGGATA [GTGCAC_negctrl_site15],6.33
8,TATATATTTCATAATACACACGAAAAAAAAAAAAAA [CACACA_site8972],6.58
9,ATAAAAATAAAATAAGGTACAGACGAAAAAATTGAA [XGTACX_site5097],6.78
10,TATATATCTATAAACACACACCAAAATTTGTGCTTT [CACACA_site7448],6.65
11,ATATACTTTAAAGGTTAAGAAAGAAAAAAAAAAAAA [CACACA_negctrl_site956],6.32
12,ATATATATATATTATATGCACACGTTAAAATTTCAT [CACACA_site709],10.4
13,AAATAAAAAGAAAAGAAAAAGAAAATAAAAAGAGAA [XGTACX_negctrl_site14],6.31
14,ATAAAATGAACAAACACACACACATATATTTATATA [CACACA_site7181],6.77
15,GTATTACATGAGGACACACACAAAAAAAATATATAT [CACACA_site769],7.06
16,TTATTATAAAAATGTAGTACAATACTTTTTTTTTTT [XGTACX_site732],5.98
17,TAATTATTTTAAAAAGTGCATTAAAAGATATTAAAT [GTGCAC_site9694],7.88
18,GAATAAATAAGATACGTACACACATATACAAAATAT [CACACA_site3660],6.7
19,AAAAATAAATTTATATATTACAAGAACAAATATAGT [XGTACX_negctrl_site567],6.77
20,TTTTTTTAAAAAAAGGGTACATATATATATTTTTCT [XGTACX_site1066],6.41
21,ATAATATAAACGTATACACACAAGAGAAGCATAAAG [CACACA_site2889],7.37
22,AAAAGGAAAGGAAAGGGTACAATCCTATTATATTAT [XGTACX_site8652],6.16

row,Sequence,gcPBM binding intensity (ln)
1,CTTATACATATATATAGTACATATATCATTTTTATG [XGTACX_site4462],6.84
2,AATTTTCTTAAAATTTGTACGTATATATTTAATATA [XGTACX_site3906],6.46
3,GTCATATATAATTGTTGTACATTTTTATAATTATGT [XGTACX_site8091],6.68
4,AATATAAATGTGATTACACACAACACATTTAAATGT [CACACA_site1212],6.47
5,AAAAAATTATATTATGCACACATCGTTATATATATA [CACACA_site1201],10.2
6,TATATATACTATAACACACATACACCCAAAAAAAAA [CACACA_site536],7.07
7,ATATGTATCTCATCGTGTACATGTATATAATATATA [XGTACX_site4139],6.73
8,TTAGAAAAATTATATATACACACTTATATTTATATA [CACACA_site2821],6.2
9,ATATATCAAAATAATTGTACAAATTTTATATAATTT [XGTACX_site7249],6.43
10,ATATAGTAAAGTTATACACACATGAATTTTCCCATG [CACACA_site6923],6.64
11,TAAACAGACATATAAACACACATACATACATACATA [CACACA_site7215],6.65
12,TTTCATGACAATGTTTGTACATAATAAAATATATTT [XGTACX_site7039],6.42
13,TTAAAAAGATGTCACTGTACATAAAACATAAAATAT [XGTACX_site2886],6.75
14,GAAGAGACTTAGAAAACACACATACATAAGATAATT [CACACA_site5333],6.46
15,AAAAAAAAAAAAAAAACACACATAAAACTATAATAA [CACACA_site7758],6.62
16,TTTATATATATTCTCACACACTTTTTATTTTAACAA [CACACA_site4534],6.68
17,AAAAATATTTATAACACACACATAATATTTATATAT [CACACA_site7238],6.78
18,ATAAATTTCCTCGTTTTTTTTTTTTTTTTTTTTTTT [CACACA_negctrl_site1173],6.95
19,CTATTTCAGAAACACACACACACAAACAAACATATA [CACACA_site978],6.85
20,TATTTGAAAGCCAATTGTACTTTAGTTTTTGAAACA [XGTACX_site5542],5.98
21,CAAGAAATTTACAAACGTACATATGTTCATACAAGG [XGTACX_site2372],6.73
22,TTAGAGAAACAAAATTGTACATTATAAATTTGCCTT [XGTACX_site440],6.02
